Assay results published in publication PMC7110144.
These are yes or no findings as the source states them, for the method shown. Where a sequence is shown, tags or fusion partners need not be part of it.

Biological target: T1, His-CENP-C(1264-1411 L1357E/M1407E) (Drosophila melanogaster) (UniProt Q9VHP9)
T1 sequence: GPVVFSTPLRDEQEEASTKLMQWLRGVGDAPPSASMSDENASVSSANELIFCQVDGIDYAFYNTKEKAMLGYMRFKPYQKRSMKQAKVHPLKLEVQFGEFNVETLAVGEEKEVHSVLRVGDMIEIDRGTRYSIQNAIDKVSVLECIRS
Assay: SEC-MALS; Superdex 200 increase 10/300 GL, 50 mM HEPES pH 8.0, 300 mM NaCl, 1 mM TCEP, 22°C; both purified

B1: His-CENP-C(1264-1411 L1357E/M1407E) (domain or fragment, UniProt Q9VHP9 1264-1411)
chain: T1 sequence
binding: no binding
